From PubChem BioAssay AID485281 (National Center for Advancing Translational Sciences (NCATS), 2010)
Among all 350,000 compounds or so, about 260 (0.074%) were called active. The shares of active, inactive and inconclusive entries below differ from those in the screen. The call rests on the fitted dose curve; in most records, active means well fitted inhibition curve with a large enough effect; inconclusive means small, poorly fitted or top-dose-only effect; inactive means no such curve, though single readings can be large or run the other way. Potencies beside an inconclusive call are fits to weak or partial responses and may not hold up.

Molecular target: Ferritin light chain (Equus caballus) (UniProt P02791)
Experiment: qHTS Assay for Identification of Novel General Anesthetics; further: nearly all actives have a fitted effect of over 20% in size
Details: apoferritin/1-aminoanthracene competitive binding, fluorescence; activity change, negative = displacement: at 77.5 µM (top of the series)
Method in brief: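 10 uM apoferritin + 50% sat. 1-AMA, PBS; cpd 10 min RT; Ex380/Em535 endpoint; normalized to free probe vs complex; 4-param Hill fit; propofol titration as pos. ctrl.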
On the % scale 0 is the no-effect control and ±100 the full control effect; potency means the concentration at half of the fitted maximal effect; tags describe the fitted curve by direction and shape.

Sequence of UniProt P02791 (P02791 whole entry, looked up): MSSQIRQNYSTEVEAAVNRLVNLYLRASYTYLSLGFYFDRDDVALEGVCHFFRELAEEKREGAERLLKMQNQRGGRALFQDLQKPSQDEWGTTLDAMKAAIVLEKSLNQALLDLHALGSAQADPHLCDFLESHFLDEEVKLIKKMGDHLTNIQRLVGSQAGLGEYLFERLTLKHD

Row | SMILES | Potency | activity change, negative = displacement
1 | CCCNC(=O)N[C@@H](Cc1ccccc1)C(=O)OC | inconclusive: 39.8 µM [inhibitor, single point] | –
2 | O=C(Nc1cccnc1)Nc1cc(Cl)cc(Cl)c1 | inconclusive: 25.1 µM [inhibitor, partial curve] | –
3 | COc1ccc(OCC(O)CNc2ccc(Br)cc2)cc1 (centres undefined) | – | inactive: -5.82%
4 | CCOc1ccc(-c2nnn(CC(=O)c3ccc4c(c3)OCCO4)n2)cc1 | inconclusive: 50.1 µM [inhibitor, single point] | –
5 | Cc1ccc(S(=O)(=O)n2nc(C)cc2C)cc1 | – | inactive: -9.21%
6 | COc1cccc(Cn2c(=O)ccc3ccccc32)c1 | inconclusive: 31.6 µM [inhibitor, partial curve] | –
7 | Cc1ccc(Sc2ccc(/C=N/O)cc2[N+](=O)[O-])cc1 | inconclusive: 3.55 µM [inhibitor, partial curve] | –
8 | Cc1ccc(NC(=O)CN(C)S(=O)(=O)c2cccc3cccnc23)cc1C | inconclusive: 28.2 µM [inhibitor, partial curve] | –
9 | Cc1ccc(NC(=O)c2ccc(N3C(=O)C4CC=C(Cl)CC4C3=O)cc2)cc1 (centres undefined) | inconclusive: 35.5 µM [inhibitor, partial curve] | –
10 | O=C(c1ccc(Cl)cc1)N1CCC(O)(CSc2ccc(Cl)cc2)CC1 | – | inactive: -18%
11 | COc1cc(C2NC(=O)N(C)C3=C2C(=O)N(c2ccccc2)C3)ccc1O (centres undefined) | – | inactive: -5.2%
12 | CN(c1ccccc1)S(=O)(=O)c1cccc(NC(=O)Cn2cnc3ccccc3c2=O)c1 | inconclusive: 5.01 µM [inhibitor, full curve, poor fit] | –
13 | OCC1(CCc2ccccc2)CCN(Cc2ccc3nsnc3c2)CC1 | inconclusive: 28.2 µM [inhibitor, partial curve] | –
14 | Cc1ccc(NC(=O)c2ccccc2NC(=O)Cc2ccccc2)cc1 | inconclusive: 28.2 µM [inhibitor, partial curve] | –
15 | COc1ccc(CCNC(=O)CSc2nc3ccccc3nc2Cc2ccc(C)cc2)cc1OC | inconclusive: 28.2 µM [inhibitor, partial curve] | –
16 | O=C(NCc1ccccc1)c1cccc(NC(=O)N2CCSc3ncccc32)c1 | inconclusive: 25.1 µM [inhibitor, single point] | –
17 | O=C(OCc1ccc(Cl)cc1Cl)c1cccnc1Cl | inconclusive: 39.8 µM [inhibitor, partial curve] | –
18 | COc1cccc(C(=O)Nc2nc(-c3ccc(S(=O)(=O)N4CCOCC4)cc3)cs2)c1 | – | inactive: 3.29%
19 | CC(C)CC(=O)Nc1ccc2ccccc2c1 | inconclusive: 17.8 µM [inhibitor, partial curve] | –
